# ± gives the standard deviation of the averaged measurements. This is one part of the list.
# Tested on: PfAP2-G AP2 domain (GST-tagged)
# Test: gcPBM binding intensity (ln(normalized median fluorescence intensity)); higher = stronger DNA binding
# Outline: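 Plasmodium falciparum DNA-binding domains carrying a GST tag were expressed in E. coli and applied for 1 h, at about 25 μg on average, to an Agilent 4 × 180k array. The array held primer-extended double-stranded 36-bp intergenic genomic probes together with negative controls, and binding took place in 1× PBS with 1% milk, 0.2 mg/ml BSA, 0.5% salmon testes DNA and 0.03% Triton X-100. An Alexa488 anti-GST antibody detected bound protein, and the array was scanned at 488 nm. Binding intensity is taken as the highest Masliner-normalised natural-log median intensity across replicate spots of either probe orientation.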
row,Sequence,gcPBM binding intensity (ln)
1,AAAAAGAATATAAGTAGTACAGTGCATATAATAATT [XGTACX_site617],11.6 ± 0.96
2,TTTTACTCTTAAAATAATAAAAAATATTCACATTTA [CACACA_negctrl_site1508],9.63 ± 0.085
3,TTAAATAATTTTTAATGTACATTAAATTTATTATTA [XGTACX_site261],11.2 ± 0.95
4,TACACATTATGTATCATACACACAAATAAATATATA [CACACA_site608],10.1 ± 0.2
5,TTAGTATATTTTTCCTGTACGTACTCAGATACAAAT [XGTACX_site7397],11.7 ± 0.91
6,AATAATAACAAATGAACACACATATATATGAGCAAA [CACACA_site2121],9.89 ± 0.057
7,TTGATATAAAAAGAAAGTACTTTATAGATGTTTATT [XGTACX_site8144],11.1 ± 0.57
8,TATAAAAATATATATATATATATATATATATATATA [TGCATGCA_negctrl_site541],9.82 ± 0.73
9,GCATCATTTATTTGCACACCTATTATATACTTTTTA [CACACA_site2098],10.09 ± 0.064
10,TACATAAACTTTATAACACACACTTATATATATATA [CACACA_site1106],10 ± 0.2
11,TATATAAAGATATATACACACAAAAAAAAAAAAAAA [CACACA_site6778],9.7 ± 0.41
12,TTCTCCATCAGATACTGTACATAATATATATAATAT [XGTACX_site8827],11 ± 0.76
13,TGTATAACCTGTGTTACACACATTAGAATTTATATA [CACACA_site6393],9.905 ± 0.092
14,AATGTATTATGTAATAGTACGTATAATATCTTATTT [XGTACX_site3],11.1 ± 0.68
15,ATACATATCTATAATACACACATAAATGTAACATTT [CACACA_site7621],10.095 ± 0.007
16,TTCTACGTTTTAAAAAAAAAAAAAAAAAAAAAAAAA [XGTACX_negctrl_site6],9.64 ± 0.33
17,CATAAAAATGAACATACACACATATATTTATTTATA [CACACA_site7222],9.785 ± 0.021
18,TGAAGATAAAAATATGCACACATATATATATATATA [CACACA_site8027],10.1 ± 0.42
19,ATAGAAATCTATTGTGATTATTATTTTATTTTTAGT [XGTACX_negctrl_site605],9.715 ± 0.049
20,ACATATTATAGGAATACACACAAAAACTTATCGGTA [CACACA_site7587],10.2 ± 0.078
21,ATTATATATATTGGAGTGCATATATAGTATTTTATA,10.1 ± 0.17
22,ATTATATCACTGTGTTGTACTTCTTATATAAAAATA [XGTACX_site2333],11.4 ± 1

row,Sequence,gcPBM binding intensity (ln)
1,ACATATCGGGTGCATTAACACACATTTATTTGAATA [CACACA_site8736],10.3 ± 0.33
2,TCCGTATAATTTTGCACACGAATATAAATTTGATAA [CACACA_site136],10.1 ± 0.25
3,TATATATTCATGTGTACACACAAAAAAAAATAAAGT [CACACA_site2207],11.7 ± 0.9
4,ATAAGCGAATATATATCACACACAAAAAAATCAGAC [CACACA_site8657],10.2 ± 0.17
5,TTTTTTTTTGATATTTGTACTTAAGTAAATATTATA [XGTACX_site3843],11 ± 0.59
6,ATAAAAATAAAATGGACACACATATATACATATTTG [CACACA_site3277],10.8 ± 0.58
7,AATTATAATAAATAACGTACAAAAAATAAATTATTT [XGTACX_site3627],11 ± 0.4
8,AAAAAGGAAATTTACACACACATATAACATACATTA [CACACA_site7534],9.84 ± 0.19
9,ATATTACACAGATATGCACACATTGTAGTTATTTAT [CACACA_site5454],10.04 ± 0.064
10,TCATATTTACAAAAAGGTATTAATAAATAAAATATT [CACACA_negctrl_site259],9.795 ± 0.021
11,AATAAGTGTTGATTCTTAAAATGACCATATAATAAT [TGCATGCA_negctrl_site221],10.8 ± 0.56
12,GCTATCATATCATGTTGTACACAACCTCAAAATGAA [XGTACX_site8757],11.4 ± 0.96
13,TATCTTTTATAAGTGACACACATAAATATTTAAATT [CACACA_site833],10.3 ± 0.33
14,ATATTAGGGTCATGAACACACAAAAAAAAAAAAAAA [CACACA_site937],10.4 ± 0.54
15,AATCGATAACAATGTAGTACCAGAAAAATAAATATT [XGTACX_site8501],11.3 ± 0.69
16,TATATATATATATATGCATGCCATATGATATATATA [TGCATGCA_site109],10.1 ± 0.67
17,CGTTTATTAAACTTGACACACACACCCCCACATATA [CACACA_site8151],11.1 ± 0.69
18,GATTATTATTATAAGGGTACAAATATTTAATAAAAA [XGTACX_site7144],11 ± 0.57
19,ATCCTCTTTTTAAGTTGTACAGGGTCGAAAAAAAAA [XGTACX_site6852],11.5 ± 0.89
20,CATGTCAAAATTATACGTACATATATAAGTTCCATT [XGTACX_site6331],11.6 ± 0.8
21,AAAAAAAAATAAAAAAGTACATTCATTTTATAAGAT [XGTACX_site3507],11.4 ± 1
22,ATAAATACAGATATTACACACTTCTTATTCTAAGAA [CACACA_site5640],9.89 ± 0.071
